Among the data in PubChem BioAssay AID324 (DTP/NCI, 2004) are T/C values, retold here.

In the assay the test system is CD2F1 mice, AMSA-resistant P388 leukemia ip, median survival T/C. The assay can be described thus: NCI In Vivo Anticancer Drug Screen. Data for tumor model P388 Leukemia resistant to AMSA; NSC 249992 (intraperitoneal) in CD2F1 (CDF1) mice. As to conditions: endpoint: median survival time, schedule: Q04DX002 (ip), vehicle: water, higher = longer survival. As to the method: The antitumor activity of compounds was measured in mice bearing transplantable tumors. Survival or tumor size were measured and the results are expressed as the measurement made in the treated group (T) divided by the measurement made in the vehicle treated control group (C). The tumor model used in this assay is P388 Leukemia resistant to AMSA; NSC 249992 (intraperitoneal) in CD2F1 (CDF1) mice

Toxic doses and inconclusive results are not listed. The source holds more than one record for some entries. This list holds those alone. The source may hold further records. The values listed for one entry are repeats (runs, samples, wells, individuals or studies).

On to `O=C1c2c(O)ccc(O)c2C(=O)c2c(NCCNCCO)ccc(NCCNCCO)c21`, for which the T/C is 118 % of control and 156 % of control (dose: 2.16 mg/kg/injection); 111 % of control and 155 % of control (dose: 3.6 mg/kg/injection).
